Data published in PubChem BioAssay AID1745853 (National Center for Advancing Translational Sciences (NCATS), 2022).
The list shows a part of the results. Shown are side measurements of this screen, not its main read-out; they come without a call.

How the values were obtained:
Experiment in all cases: Primary Screen for Target Class Profiling of Small Molecule Inhibitors of Methyltransferases
[1] = target: Glycine N-methyltransferase (Homo sapiens) (UniProt Q14749); settings: purified enzyme, MTase-Glo SAH luminescence; measured here: GNMT inhibition; at 40 µM; stronger effect = lower value
Procedure, shortened: (§1)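 Each enzyme was reacted with SAM and its substrate, with compounds tested once at 40 uM; SAH formed was read by MTase-Glo luminescence.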

[2] = target: Guanidinoacetate N-methyltransferase (Homo sapiens) (UniProt Q14353); settings: purified enzyme, MTase-Glo SAH luminescence; measured here: GAMT inhibition; at 40 µM; stronger effect = lower value
Procedure, shortened: as §1

[3] = target: Histamine N-methyltransferase (Homo sapiens) (UniProt P50135); settings: purified enzyme, MTase-Glo SAH luminescence; measured here: HNMT inhibition; at 40 µM; stronger effect = lower value
Procedure, shortened: as §1

[4] = target: Nicotinamide N-methyltransferase (Homo sapiens) (UniProt P40261); settings: purified enzyme, MTase-Glo SAH luminescence; measured here: NNMT inhibition; at 40 µM; stronger effect = lower value
Procedure, shortened: as §1

[5] = target: Phenylethanolamine N-methyltransferase (Homo sapiens) (UniProt P11086); settings: purified enzyme, MTase-Glo SAH luminescence; measured here: PNMT inhibition; at 40 µM; stronger effect = lower value
Procedure, shortened: as §1
% is scaled to controls: 0 for no effect and ±100 for the full control effect.

CC(C)NC(=O)NC[C@H]1OC[C@@H](NCc2cnc[nH]2)[C@@H]1O was tested, and the activity change, negative = inhibition [1] was -4.74%, the activity change, negative = inhibition [2] was -1.96% and the activity change, negative = inhibition [3] was -0.103%. For the same molecule, the activity change, negative = inhibition [4] was -4.17% and the activity change, negative = inhibition [5] was 1.53%.
O=C(c1ccccn1)N1CC(CO)C2(CCNCC2)C1 (stereo not given) showed an activity change, negative = inhibition [1] of -2.85%, an activity change, negative = inhibition [2] of -3.75% and an activity change, negative = inhibition [3] of -1.02%. It also gave an activity change, negative = inhibition [4] of -0.673% and an activity change, negative = inhibition [5] of -4.51%.
Cc1ccc(Cn2c(=O)c3ccccc3n3c(CCC(=O)N4CCN(c5cccc(Cl)c5)CC4)nnc23)cc1 showed an activity change, negative = inhibition [1] of -4.05%, an activity change, negative = inhibition [2] of 4.34% and an activity change, negative = inhibition [3] of 6.03%. For the same molecule, the activity change, negative = inhibition [4] was 2.2% and the activity change, negative = inhibition [5] was 1.7%.
In the case of Cc1ccc(NC(=O)Cn2nc3n(CC(C)C)c(=O)c4ccccc4n3c2=O)cc1C, the activity change, negative = inhibition [1] is reported as 2.34%, the activity change, negative = inhibition [2] is reported as 0% and the activity change, negative = inhibition [3] is reported as 5.55%. The activity change, negative = inhibition [4] was -1.74% and the activity change, negative = inhibition [5] was 1.5%.
In the case of COC(=O)c1ncn2c1C(=O)N(Cc1ccccc1C)C(C)(C(=O)NC1CCCCC1)C2 (stereo not given), the activity change, negative = inhibition [1] is reported as 6.79%, the activity change, negative = inhibition [2] is reported as 0% and the activity change, negative = inhibition [3] is reported as 7.98%. The activity change, negative = inhibition [4] was 9.8% and the activity change, negative = inhibition [5] was 4.52%.
In the case of COc1ccc(OC)c(N2C(=O)c3cc4ccccc4n3CC2(C)C(=O)NC2CCCC2)c1 (stereo not given), the activity change, negative = inhibition [1] is reported as 0.404%, the activity change, negative = inhibition [2] is reported as 4.95% and the activity change, negative = inhibition [3] is reported as 1.73%. It also gave an activity change, negative = inhibition [4] of 1.36% and an activity change, negative = inhibition [5] of 1.87%.
CCCn1c(=O)c2ccc(C(=O)NC3CCCCC3)cc2n2c(=O)n(Cc3ccccc3F)nc12 gave an activity change, negative = inhibition [1] of 4.79%, an activity change, negative = inhibition [2] of 0% and an activity change, negative = inhibition [3] of 8.1%. The activity change, negative = inhibition [4] was 3.4% and the activity change, negative = inhibition [5] was 6.03%.
In the case of CC1(C(=O)NC2CCCCC2)Cn2c(cc3ccccc32)C(=O)N1Cc1cccc(Cl)c1 (stereo not given), the activity change, negative = inhibition [1] is reported as -7.34%, the activity change, negative = inhibition [2] is reported as -0.362% and the activity change, negative = inhibition [3] is reported as -6.55%. For the same molecule, the activity change, negative = inhibition [4] was -6.17% and the activity change, negative = inhibition [5] was -5.7%.
Molecule Cc1ccc(OCC(=O)N2CCC3(CC2)N=C(c2ccc(C)cc2)NO3)cc1 has an activity change, negative = inhibition [1] of -5.96%, an activity change, negative = inhibition [2] of -1.57% and an activity change, negative = inhibition [3] of -2.98%. It also gave an activity change, negative = inhibition [4] of -7.03% and an activity change, negative = inhibition [5] of -3.42%.
Work on COC1=CC(=O)O[C@@H](/C=C/c2ccccc2)[C@@H]1O yielded an activity change, negative = inhibition [1] of -0.401%, an activity change, negative = inhibition [2] of 2.27% and an activity change, negative = inhibition [3] of 8.28%. It also gave an activity change, negative = inhibition [4] of -7.71% and an activity change, negative = inhibition [5] of -2.4%.
Molecule CC(=O)N1CCC(N[C@@H]2CO[C@H](CNS(=O)(=O)c3ccccc3)[C@H]2O)CC1 has an activity change, negative = inhibition [1] of -2.62%, an activity change, negative = inhibition [2] of -1.64% and an activity change, negative = inhibition [3] of 0.192%. It also gave an activity change, negative = inhibition [4] of -2.32% and an activity change, negative = inhibition [5] of 5.03%.
C[C@@H]1O[C@@H](O[C@H]2[C@H](OC(C#N)c3ccc(O)cc3)O[C@H](CO)[C@@H](O)[C@@H]2O)[C@H](O)[C@H](O)[C@H]1O (stereo not given in full) gave an activity change, negative = inhibition [1] of 0%, an activity change, negative = inhibition [2] of 6.03% and an activity change, negative = inhibition [3] of 8.39%. It also gave an activity change, negative = inhibition [4] of -4.47% and an activity change, negative = inhibition [5] of 6.26%.
For CCOc1ccccc1CNC(=O)c1cc2n(n1)CC(C)(C(=O)NC1CCCC1)N(CC)C2=O (stereo not given), the activity change, negative = inhibition [1] was -4.65%, the activity change, negative = inhibition [2] was 0% and the activity change, negative = inhibition [3] was -2.58%. The activity change, negative = inhibition [4] was 3.35% and the activity change, negative = inhibition [5] was 4.31%.
For Nc1nc(Cl)nc2c1ncn2C1OC(CO)C(O)C1F (stereo not given), the activity change, negative = inhibition [1] was -9.82%, the activity change, negative = inhibition [2] was -19.8% and the activity change, negative = inhibition [3] was -9.65%. The activity change, negative = inhibition [4] was -25.4% and the activity change, negative = inhibition [5] was -16.3%.
Cc1ccc(C(=O)Cn2nc3n(CC(C)C)c(=O)c4ccc(C(=O)NC5CCCC5)cc4n3c2=O)cc1 showed an activity change, negative = inhibition [1] of 2.63%, an activity change, negative = inhibition [2] of 0.816% and an activity change, negative = inhibition [3] of 5.51%. It also gave an activity change, negative = inhibition [4] of 1.79% and an activity change, negative = inhibition [5] of 3.25%.
Cc1ccc(NS(=O)(=O)c2cc3[nH]c(=O)[nH]c3cc2C)cc1F showed an activity change, negative = inhibition [1] of 11.7%, an activity change, negative = inhibition [2] of 0% and an activity change, negative = inhibition [3] of 13%. For the same molecule, the activity change, negative = inhibition [4] was -3.74% and the activity change, negative = inhibition [5] was -12.9%.
